# Data from PubChem BioAssay (Tox21).
# The inconclusive results got no clear call from the source; some entries with a clear call stand among them for comparison. Where a call stands in place of a potency, no number is given. For part of these data: A potency beside an inconclusive call is a rough fit, not a confirmed value. The source holds several records for some structures; these can differ, active in one and inactive in another. Activity calls are given as the source filed them. Unless noted, the call rests on the fitted dose curve; in most records, active means well fitted curve in the direction sought with a large enough effect in the repeat runs; inconclusive means weak or mixed curves; inactive means no such curve, though single readings can be large; an effect the other way counts as inactive or inconclusive.
# Legend:
# [1] = biological target: Estrogen receptor (Homo sapiens) (UniProt P03372); experiment: qHTS assay to identify small molecule antagonists of the estrogen receptor alpha (ER-alpha) signaling pathway (AID 743069; active means well fitted curve in the direction sought with a large enough effect in the signal ratio in the repeat runs, not every such curve was filed as active; inconclusive means weak or mixed curves, or effect the other way; inactive means no such curve, though single readings can be large or run the other way; the % refers to the signal ratio; further: potency means the concentration at half of the fitted maximal effect); settings: HEK293 ER-alpha-UAS-bla, beta-lactamase ratio, antagonist mode; activity, negative = inhibition: at 69.4 µM (top of the series) unless noted
# Outline: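 HEK293 ER-alpha-UAS-bla GripTite cells, held overnight in 2% charcoal-stripped FBS, 5,000 cells/well, preincubated 4 h, then compound plus 17beta-estradiol for 18 h at 37C. Beta-lactamase read by LiveBLAzer B/G FRET substrate, 2 h at room temperature.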
# [2] = Caspase-3/7 induction in CHO-K1 cells by small molecules, qHTS cell viability counter screen (AID 1346979); further: nearly all actives have a fitted effect of over 35% in size; further: potency means the concentration at half of the fitted maximal effect
# Outline: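 CHO-K1 wt, 1,500 cells/well; 5hr pre-incubation 37C/5% CO2; compound pin transfer (DMSO); 16hr exposure; CellTiter-Fluor added, 1hr, fluorescence read.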
# [3] = Caspase-3/7 induction in HepG2 cells by small molecules, qHTS cell viability counter screen (AID 1346981); further: nearly all actives have a fitted effect of over 30% in size; further: potency means the concentration at half of the fitted maximal effect
# Outline: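 Counter screen for cytotoxicity: HepG2 exposed 16 hr to compounds, then CellTiter-Fluor viability signal (fluorescence, 1 hr reagent incubation).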
# [4] = biological target: Nuclear receptor subfamily 1 group I member 2 (Homo sapiens) (UniProt O75469); experiment: Human pregnane X receptor (PXR) small molecule agonists, qHTS assay (AID 1346982); further: nearly all actives have a fitted effect of over 35% in size; further: potency means the concentration at half of the fitted maximal effect
# Outline: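 Luminescence (ONE-Glo, 30 min RT) after 24 hr compound exposure of PXR-Luc HepG2 cells; cells rested 5 hr post-plating in 5% charcoal-stripped FBS medium.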
# [5] = biological target: Cytochrome P450 3A4 (Homo sapiens) (UniProt P08684); experiment: Cytochrome P450 Family 3 Subfamily A Member 4 (CYP3A4) small molecule antagonists: luciferase reporter qHTS assay (AID 1671201); further: nearly all actives have a fitted effect of over 50% in size; further: potency means the concentration at half of the fitted maximal effect
# Outline: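 Luminescent readout (RLU) proportional to CYP3A4 activity, from luciferin generated off a proluciferin substrate. Enzyme–substrate mix plus compound 10 min at room temp, NADPH regeneration 1 h, detection reagent 20 min.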
# [6] = qHTS assay to identify small molecule agonists of H2AX (AID 1224845; active means well fitted activation curve with a large enough effect in the signal ratio in the repeat runs, not every such curve was filed as active; inconclusive means weak or mixed curves; the % refers to the signal ratio; further: potency means the concentration at half of the fitted maximal effect); settings: CHO-K1 phospho-H2AX Ser139 HTRF, 3 h; activation (H2AX phosphorylation): at 154 µM (top of the series) unless noted
# Outline: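 Wild-type CHO-K1 cells, plated overnight, exposed 3hr at 37C to 15 concentrations (0.76% DMSO final). Lysed, then HTRF anti-pH2AX (S139) cryptate and anti-H2AX-d2 antibodies, 24 hr room temperature; 665/620 nm emission read.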
# [7] = qHTS RealTime-Glo MT Cell Viability Assay in HEK293 cells - 32 hour (AID 1224868); further: nearly all actives have a fitted effect of over 50% in size; further: potency means the concentration at half of the fitted maximal effect; on activity change, negative = cytotoxic: top concentration of the series differs between compounds
# Outline: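 Homogeneous bioluminescent viability format in HEK293 cells (600 cells/well). Following 5 h at 37 C/5% CO2, 23 nL compound was pintooled; the signal was measured repeatedly during 40 h incubation.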
# [8] = qHTS assay to identify small molecule agonists of the estrogen receptor beta (ER-beta) signaling pathway - cell viability counter screen (AID 1259380); further: nearly all actives have a fitted effect of over 30% in size; further: potency means the concentration at half of the fitted maximal effect
# Outline: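 Viability of ER-beta-UAS-bla HEK293T cells was determined by CellTiter-Glo luminescence following 16 hr treatment with test compounds at 37C.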
# [9] = biological target: Thyrotropin receptor (Homo sapiens) (UniProt P16473); experiment: qHTS assay to identify small molecule antagonists of the thyroid stimulating hormone receptor (TSHR) signaling pathway (AID 1259385; calls by dose curve; further: nearly all actives have a fitted effect of over 20% in size; further: potency means the concentration at half of the fitted maximal effect); settings: TSHR-HEK293 cAMP HTRF, TSH-stimulated antagonist mode; activity change, negative = inhibition: at 92.4 µM (top of the series) unless noted
# Outline: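 TSHR-HEK293 cells (800/well) plated 18 h, then compounds with Ro20-1724 and TSH at 1.5 ng/mL final, 30 min at room temperature. cAMP quantified by HTRF (cAMP-d2/anti-cAMP-cryptate, 1 h); 15 concentrations in triplicate.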
# [10] = biological target: Cytochrome P450 2C19 (Homo sapiens) (UniProt P33261); experiment: Cytochrome P450 Family 2 Subfamily C Member 19 (CYP2C19) small molecule antagonists: luciferase reporter qHTS assay (AID 1671197); further: nearly all actives have a fitted effect of over 65% in size; further: potency means the concentration at half of the fitted maximal effect
# Outline: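 Relative luminescence units recorded 20 min after the detection reagent stopped a 1 h, 37C CYP2C19 reaction on proluciferin substrate, which was started by NADPH regeneration following 10 min room-temperature compound preincubation; ketoconazole positive control.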
# [11] = biological target: Peroxisome proliferator-activated receptor gamma (Homo sapiens) (UniProt P37231); experiment: qHTS assay to identify small molecule agonists of the peroxisome proliferator-activated receptor gamma (PPARg) signaling pathway (AID 743094; active means well fitted activation curve with a large enough effect in the signal ratio in the repeat runs, not every such curve was filed as active; inconclusive means weak or mixed curves, or effect the other way; inactive means no such curve, though single readings can be large or run the other way; the % refers to the signal ratio); settings: HEK293H PPARg-UAS-bla, beta-lactamase FRET ratio, 17 h; activation: at 57 µM (top of the series) unless noted
# Outline: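 Stably transfected HEK293H cells (GeneBLAzer PPARg UAS-bla) were incubated with test substances for 17 h at 37C after a 5 h pre-incubation; beta-lactamase activity was then detected by FRET substrate fluorescence.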
# [12] = biological target: Estrogen receptor (Homo sapiens) (UniProt P03372); experiment: qHTS assay to identify small molecule agonists of the estrogen receptor alpha (ER-alpha) signaling pathway using the BG1 cell line (AID 743079); settings: BG1Luc4E2 cells, ERE-luciferase agonist, 22 h; activation: at 70.3 µM (top of the series) unless noted; further: nearly all actives have a fitted effect of over 20% in size; further: potency means the concentration at half of the fitted maximal effect
# [13] = qHTS assay to identify small molecule antagonists of the vitamin D receptor (VDR) signaling pathway - cell viability counter screen (AID 743225); settings: VDR-bla HEK293T viability, CellTiter-Glo luminescence, 16 h; viability change, negative = cytotoxic: at 61 µM (top of the series) unless noted; further: nearly all actives have a fitted effect of over 50% in size; further: potency means the concentration at half of the fitted maximal effect
# Outline: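 Viability counter screen run in the same wells as the beta-lactamase reporter assay: HEK 293T VDR-UAS-bla cells, 16 h compound exposure at 37C with 3 nM (final) 1-alpha,25-dihydroxyvitamin D3. CellTiter-Glo luminescence, 30 min, room temperature.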
# [14] = A CellTox Green Cytotoxicity Assay to monitor cytotoxicity in HEK293 cells - 40 hour (AID 1224871); further: nearly all actives have a fitted effect of over 45% in size
# Outline: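 Each value comes from one timepoint of a single continuous run in which HEK293 cells with CellTox Green were exposed to compound for up to 40 h at 37 C, dye fluorescence rising with cell death.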
# [15] = qHTS assay to identify small molecule antagonists of the estrogen receptor alpha (ER-alpha) signaling pathway - cell viability counter screen (AID 743074; calls by dose curve;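 further: HEK293 cells carrying ER-alpha-UAS-bla reporter stimulated with 17beta-estradiol; nearly all actives have a fitted effect of over 45% in size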; further: potency means the concentration at half of the fitted maximal effect)
# [16] = biological target: Vitamin D3 receptor (Homo sapiens) (UniProt P11473); experiment: qHTS assay to identify small molecule agonists of the vitamin D receptor (VDR) signaling pathway (AID 743222; calls by dose curve); settings: HEK293T VDR-UAS-bla, beta-lactamase FRET ratio, 16 h; activation: at 63.5 µM (top of the series) unless noted
# Outline: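 Agonist activity measured in VDR-bla reporter cells. Exposure 16 h, 37C, 5% CO2; detection by B/G FRET substrate, 2 h RT.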
# [17] = qHTS assay to identify small molecule agonists of H2AX - cell viability counter screen (AID 1224847; calls by dose curve; further: nearly all actives have a fitted effect of over 30% in size; further: potency means the concentration at half of the fitted maximal effect)
# Outline: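 CHO-K1 wt, 1000 cells/well, o/n 37C; cpds 15 conc, 3 h 37C, 0.76% DMSO; CellTiter-Glo, 30 min RT, luminescence.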
# [18] = qHTS assay to identify small molecule antagonists of the estrogen related receptor signaling pathway with the pleiotropic PPARgamma coactivator (PGC) from Tox21 10K library - cell viability counter screen (AID 1224840; active means well fitted cell-killing curve with a large enough effect in the repeat runs, not every such curve was filed as active; inconclusive means weak or mixed curves, or effect the other way; inactive means no such curve, though single readings can be large or run the other way; further: nearly all actives have a fitted effect of over 40% in size)
# Outline: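 Compounds in DMSO, alongside positive and negative controls, were pinned onto PGC/ERR cells (2,000 per well). Exposure lasted 17.5 hours at 37 C, followed by a 30-minute CellTiter-Fluor incubation and fluorescence reading.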
# [19] = biological target: Estrogen receptor beta (Homo sapiens) (UniProt Q92731); experiment: qHTS assay to identify small molecule agonists of the estrogen receptor beta (ER-beta) signaling pathway (AID 1259377; active means well fitted activation curve with a large enough effect in the signal ratio in the repeat runs, not every such curve was filed as active; inconclusive means weak or mixed curves, or effect the other way; the % refers to the signal ratio); settings: ER-beta-UAS-bla HEK293T, beta-lactamase FRET ratio, 16 h; activation: at 92.4 µM (top of the series) unless noted
# Outline: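 Beta-lactamase reporter readout: fluorescence of LiveBLAzer B/G FRET substrate after 2 h at room temperature, following 16 h compound treatment of ER-beta-UAS-bla HEK293T cells at 37C in 2% charcoal-stripped FBS medium.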
# Tags describe the fitted curve by direction and shape or compound fluorescence and quenching.
# Chain of UniProt O75469 (O75469 whole entry, looked up): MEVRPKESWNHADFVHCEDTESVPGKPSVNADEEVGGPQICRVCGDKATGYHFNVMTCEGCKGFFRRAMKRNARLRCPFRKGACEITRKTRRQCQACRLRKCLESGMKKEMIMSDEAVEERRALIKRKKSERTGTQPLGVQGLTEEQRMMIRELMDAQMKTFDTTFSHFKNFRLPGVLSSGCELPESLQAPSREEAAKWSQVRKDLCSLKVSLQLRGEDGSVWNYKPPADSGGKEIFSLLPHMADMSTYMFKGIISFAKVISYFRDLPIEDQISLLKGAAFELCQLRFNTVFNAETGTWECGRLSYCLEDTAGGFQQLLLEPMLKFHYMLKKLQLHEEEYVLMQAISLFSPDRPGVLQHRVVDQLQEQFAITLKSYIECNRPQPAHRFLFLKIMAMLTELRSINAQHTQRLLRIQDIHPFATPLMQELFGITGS
# Chain of UniProt P03372 (P03372 whole entry, looked up): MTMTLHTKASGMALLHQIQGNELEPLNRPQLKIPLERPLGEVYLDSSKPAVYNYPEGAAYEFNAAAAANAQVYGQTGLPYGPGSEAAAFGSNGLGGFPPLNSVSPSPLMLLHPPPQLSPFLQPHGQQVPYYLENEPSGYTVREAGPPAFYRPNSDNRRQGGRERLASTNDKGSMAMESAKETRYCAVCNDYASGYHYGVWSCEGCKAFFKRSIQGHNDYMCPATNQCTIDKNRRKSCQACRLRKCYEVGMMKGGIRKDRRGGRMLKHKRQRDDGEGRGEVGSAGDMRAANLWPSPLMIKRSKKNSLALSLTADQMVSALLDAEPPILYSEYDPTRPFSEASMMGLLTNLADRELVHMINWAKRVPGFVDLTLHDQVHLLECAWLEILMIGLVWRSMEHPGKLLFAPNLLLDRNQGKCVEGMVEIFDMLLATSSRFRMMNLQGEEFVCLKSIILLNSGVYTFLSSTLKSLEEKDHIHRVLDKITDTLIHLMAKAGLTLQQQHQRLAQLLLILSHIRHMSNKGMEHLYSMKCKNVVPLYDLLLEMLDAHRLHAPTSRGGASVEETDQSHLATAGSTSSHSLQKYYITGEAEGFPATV
# Chain of UniProt P37231 (P37231 whole entry, looked up): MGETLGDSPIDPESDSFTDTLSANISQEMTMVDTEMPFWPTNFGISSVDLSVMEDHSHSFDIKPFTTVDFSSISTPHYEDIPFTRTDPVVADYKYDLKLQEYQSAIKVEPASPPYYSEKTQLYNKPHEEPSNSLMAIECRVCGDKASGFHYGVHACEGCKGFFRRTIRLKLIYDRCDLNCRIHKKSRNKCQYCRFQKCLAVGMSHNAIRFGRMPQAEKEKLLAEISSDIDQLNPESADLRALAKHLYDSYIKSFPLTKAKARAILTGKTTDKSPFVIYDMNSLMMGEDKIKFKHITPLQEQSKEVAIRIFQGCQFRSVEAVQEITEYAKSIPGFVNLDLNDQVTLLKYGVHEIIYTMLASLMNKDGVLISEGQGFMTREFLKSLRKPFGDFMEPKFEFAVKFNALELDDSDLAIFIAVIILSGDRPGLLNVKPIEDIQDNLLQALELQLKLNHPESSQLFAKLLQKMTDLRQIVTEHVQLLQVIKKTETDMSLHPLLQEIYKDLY
# Chain of UniProt P33261 (P33261 whole entry, looked up): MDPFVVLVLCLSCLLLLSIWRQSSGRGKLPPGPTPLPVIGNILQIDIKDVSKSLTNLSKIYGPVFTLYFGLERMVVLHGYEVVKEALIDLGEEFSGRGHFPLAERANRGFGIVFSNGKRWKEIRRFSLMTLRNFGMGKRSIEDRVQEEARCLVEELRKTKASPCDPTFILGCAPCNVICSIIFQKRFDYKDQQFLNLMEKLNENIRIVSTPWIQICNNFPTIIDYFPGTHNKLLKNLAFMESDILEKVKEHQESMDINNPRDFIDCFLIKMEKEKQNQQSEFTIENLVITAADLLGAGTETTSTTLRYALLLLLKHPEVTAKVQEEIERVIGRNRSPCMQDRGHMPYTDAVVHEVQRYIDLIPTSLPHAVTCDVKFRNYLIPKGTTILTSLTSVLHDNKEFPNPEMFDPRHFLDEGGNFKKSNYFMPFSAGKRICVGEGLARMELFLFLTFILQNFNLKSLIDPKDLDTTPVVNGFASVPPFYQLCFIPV
# Chain of UniProt P11473 (P11473 whole entry, looked up): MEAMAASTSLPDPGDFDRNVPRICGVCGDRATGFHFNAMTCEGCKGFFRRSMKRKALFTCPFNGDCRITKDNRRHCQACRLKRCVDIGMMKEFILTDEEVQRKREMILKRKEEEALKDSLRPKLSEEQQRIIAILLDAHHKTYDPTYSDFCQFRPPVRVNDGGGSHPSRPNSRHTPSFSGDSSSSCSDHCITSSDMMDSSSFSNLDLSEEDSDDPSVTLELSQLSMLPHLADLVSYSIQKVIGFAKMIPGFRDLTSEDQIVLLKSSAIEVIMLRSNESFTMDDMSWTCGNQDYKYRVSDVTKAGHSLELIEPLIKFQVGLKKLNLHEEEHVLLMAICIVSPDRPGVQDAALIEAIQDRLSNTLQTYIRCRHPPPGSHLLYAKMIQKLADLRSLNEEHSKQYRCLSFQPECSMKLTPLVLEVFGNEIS
# Chain of UniProt P08684 (P08684 whole entry, looked up): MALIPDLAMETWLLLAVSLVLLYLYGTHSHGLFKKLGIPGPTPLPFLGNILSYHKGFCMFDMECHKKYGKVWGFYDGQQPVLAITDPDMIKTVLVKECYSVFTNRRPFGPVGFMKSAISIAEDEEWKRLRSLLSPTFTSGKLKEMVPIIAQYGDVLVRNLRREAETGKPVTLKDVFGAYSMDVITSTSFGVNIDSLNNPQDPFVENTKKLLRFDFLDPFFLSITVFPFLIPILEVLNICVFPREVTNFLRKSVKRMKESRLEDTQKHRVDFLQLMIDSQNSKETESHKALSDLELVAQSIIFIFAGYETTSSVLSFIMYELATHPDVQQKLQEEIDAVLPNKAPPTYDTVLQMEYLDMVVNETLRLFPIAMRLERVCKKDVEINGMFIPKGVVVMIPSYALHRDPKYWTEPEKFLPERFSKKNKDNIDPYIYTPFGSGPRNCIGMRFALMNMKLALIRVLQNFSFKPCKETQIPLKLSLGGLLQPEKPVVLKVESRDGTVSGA
# Chain of UniProt P16473 (P16473 whole entry, looked up): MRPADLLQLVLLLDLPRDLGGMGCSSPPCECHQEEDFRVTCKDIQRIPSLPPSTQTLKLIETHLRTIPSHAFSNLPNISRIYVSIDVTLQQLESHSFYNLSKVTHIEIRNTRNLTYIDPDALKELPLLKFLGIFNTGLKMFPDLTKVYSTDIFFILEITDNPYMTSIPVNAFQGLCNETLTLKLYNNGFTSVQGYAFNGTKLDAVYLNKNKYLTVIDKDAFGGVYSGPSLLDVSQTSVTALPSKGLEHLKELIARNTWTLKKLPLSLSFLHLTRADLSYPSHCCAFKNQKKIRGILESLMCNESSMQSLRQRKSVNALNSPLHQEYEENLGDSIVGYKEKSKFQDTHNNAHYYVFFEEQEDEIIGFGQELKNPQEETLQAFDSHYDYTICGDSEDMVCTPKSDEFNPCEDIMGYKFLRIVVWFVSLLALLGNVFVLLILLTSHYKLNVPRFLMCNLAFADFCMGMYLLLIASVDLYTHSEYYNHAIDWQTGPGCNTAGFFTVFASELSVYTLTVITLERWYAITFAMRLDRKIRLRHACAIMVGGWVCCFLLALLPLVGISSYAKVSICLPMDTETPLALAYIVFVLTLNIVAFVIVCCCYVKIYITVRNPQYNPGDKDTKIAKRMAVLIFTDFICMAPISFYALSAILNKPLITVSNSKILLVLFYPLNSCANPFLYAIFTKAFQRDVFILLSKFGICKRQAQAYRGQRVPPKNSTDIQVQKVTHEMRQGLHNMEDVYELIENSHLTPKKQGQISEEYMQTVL
# Chain of UniProt Q92731 (Q92731 whole entry, looked up): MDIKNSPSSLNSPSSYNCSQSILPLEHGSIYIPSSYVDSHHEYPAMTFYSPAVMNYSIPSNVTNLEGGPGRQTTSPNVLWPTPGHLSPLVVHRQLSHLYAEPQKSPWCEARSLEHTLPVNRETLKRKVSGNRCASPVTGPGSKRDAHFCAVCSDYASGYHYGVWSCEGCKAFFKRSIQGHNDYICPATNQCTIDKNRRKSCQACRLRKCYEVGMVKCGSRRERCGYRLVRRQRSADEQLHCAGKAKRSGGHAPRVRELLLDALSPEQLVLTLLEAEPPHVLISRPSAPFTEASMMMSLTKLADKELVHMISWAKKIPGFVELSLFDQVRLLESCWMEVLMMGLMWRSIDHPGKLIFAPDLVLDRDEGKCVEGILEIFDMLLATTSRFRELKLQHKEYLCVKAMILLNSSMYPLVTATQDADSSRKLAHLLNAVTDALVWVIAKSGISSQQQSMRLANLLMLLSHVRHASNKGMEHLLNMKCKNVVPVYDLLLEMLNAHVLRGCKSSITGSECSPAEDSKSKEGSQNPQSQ
structure (smiles),measurement,setting,value
Cc1ncc([C@@H](CCCCCCc2ccc3c(n2)NCCC3)CC(=O)O)cn1,Potency,[1],inconclusive: 54.9 µM [activator]
same,Potency,[2],active: 38.6 µM
same,Potency,[3],"inconclusive: 38.6 µM [cytotoxic, partial curve]"
same,Potency,[4],inactive
same,Potency,[5],inactive
O=C(O)CCNC(=O)c1ccc(N=Nc2ccc(O)c(C(=O)O)c2)cc1,Potency,[6],"inconclusive: 39.1 µM [falling, partial curve]"
same,Potency,[2],"inconclusive: 29.8 µM [cytotoxic, partial curve]"
same,Potency,[3],"inconclusive: 29.8 µM [cytotoxic, single point]"
CC(=O)[C@@]1(O)CC[C@H]2[C@@H]3C[C@H](C)C4=CC(=O)C=C[C@]4(C)[C@@]3(F)[C@@H](O)C[C@@]21C,"activity, negative = inhibition",[1],inconclusive: 26.4% [at 32.6 µM]
same,Potency,[6],inconclusive: 113 µM [fluorescent]
same,Potency,[7],active: 19.5 µM
same,Potency,[8],inactive
same,Potency,[4],"inconclusive: 18.8 µM [activator, partial curve, poor fit]"
CCn1c(=O)c2c(nc(/C=C/c3ccc(OC)c(OC)c3)n2C)n(CC)c1=O,Potency,[8],"inconclusive: 3.35 µM [cytotoxic, single point]"
same,"activity change, negative = inhibition",[9],inconclusive: -15.4% [at 42.5 µM]
same,Potency,[2],"inconclusive: 33.5 µM [cytotoxic, single point]"
same,Potency,[10],"inconclusive: 9.77 µM [inhibitor, single point]"
CC1(C)Cc2cccc(N)c2O1,Potency,[11],inactive
same,Potency,[6],inactive
same,Potency,[10],active: 17.8 µM
CCC/C=C(\C=O)CC,Potency,[12],inactive
same,Potency,[13],"inconclusive: 0.174 µM [rising, full curve, poor fit]"
same,Potency,[14],inactive
same,Potency,[2],inactive
same,Potency,[4],"inconclusive: 34.4 µM [activator, partial curve]"
N[C@@H](CCC(=O)N[C@@H](CS)C(=O)NCC(=O)O)C(=O)O,Potency,[15],inactive
same,"activity change, negative = cytotoxic",[7],inactive: 7.09% [at 15.8 µM]
O=S(=O)(O)c1ccccc1,Potency,[15],"inconclusive: 1.74 µM [rising, full curve, poor fit]"
same,Potency,[6],"inconclusive: 126 µM [rising, single point]"
same,Potency,[2],inactive
O=C(OCc1ccccc1)C(=O)OCc1ccccc1,Potency,[1],inactive
same,Potency,[16],inactive
same,Potency,[7],inactive
same,Potency,[14],inactive
Cc1cc(=O)[nH]c(=S)[nH]1,Potency,[7],inactive
same,Potency,[8],inactive
same,Potency,[4],inactive
O=C(CCCN1CCN(c2ccccn2)CC1)c1ccc(F)cc1,Potency,[7],"inconclusive: 19 µM [cytotoxic, partial curve]"
same,Potency,[8],"inconclusive: 2.66 µM [cytotoxic, partial curve, poor fit]"
same,Potency,[9],"inconclusive: 0.0211 µM [falling, full curve, poor fit]"
same,Potency,[10],active: 34.7 µM
COc1nccnc1CC(C)C,Potency,[17],inactive
Clc1cc(Cl)cc(Cl)c1,Potency,[1],inactive
same,Potency,[10],"inconclusive: 78.5 µM [inhibitor, single point]"
CCOC(=O)[C@H](CCc1ccccc1)N[C@@H](C)C(=O)N1[C@H](C(=O)O)C[C@@H]2CCC[C@@H]21,Potency,[12],inactive
same,Potency,[11],inactive
same,Potency,[16],inactive
same,Potency,[18],inactive
same,Potency,[8],inactive
CC/C=C\CCOC(=O)C(C)C,Potency,[15],inactive
same,activation,[16],inconclusive: 0.873%
same,Potency,[7],inactive
same,Potency,[5],"inconclusive: 63.3 µM [inhibitor, partial curve]"
O=C(CN1CCN(Cc2ccc3c(c2)OCO3)CC1)N1c2ccccc2Sc2ccccc21,activation,[11],inconclusive: -16.8%
same,Potency,[17],inactive
same,Potency,[7],"inconclusive: 9.52 µM [cytotoxic, partial curve, poor fit]"
same,Potency,[8],"inconclusive: 21.1 µM [cytotoxic, partial curve]"
CCN1CCC[C@H]1CNC(=O)c1cc(S(N)(=O)=O)ccc1OC,Potency,[11],inactive
same,Potency,[3],inactive
c1ccc([C@H]2CN3CCSC3=N2)cc1,Potency,[12],active: 11.9 µM
same,Potency,[16],inactive
same,Potency,[10],inactive
C=CCOc1c(Br)cc(C(C)(C)c2cc(Br)c(OCC=C)c(Br)c2)cc1Br,Potency,[12],inactive
same,Potency,[19],inactive
same,Potency,[4],"inconclusive: 21.2 µM [activator, partial curve]"
same,Potency,[10],active: 24.6 µM
O=C(CCBr)N1CCN(C(=O)CCBr)CC1,activation,[11],inconclusive: 8.66%
same,Potency,[13],inactive
same,Potency,[3],inactive
Nc1cccc(S(=O)(=O)c2cccc(N)c2)c1,Potency,[13],inactive
same,Potency,[17],"inconclusive: 2.53 µM [cytotoxic, single point]"
same,Potency,[5],active: 10 µM
